# Source: the supplement of paper PMC11417369
# The list shows a part of the results.
# Test system: PfAP2-HC AP2 domain (GST-tagged)
# Assay: gcPBM binding intensity (ln(normalized median fluorescence intensity)); higher = stronger DNA binding
# How it was run: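 Plasmodium falciparum DNA-binding domains carrying a GST tag were expressed in E. coli and applied for 1 h, at about 25 μg on average, to an Agilent 4 × 180k array. The array held primer-extended double-stranded 36-bp intergenic genomic probes together with negative controls, and binding took place in 1× PBS with 1% milk, 0.2 mg/ml BSA, 0.5% salmon testes DNA and 0.03% Triton X-100. An Alexa488 anti-GST antibody detected bound protein, and the array was scanned at 488 nm. Binding intensity is taken as the highest Masliner-normalised natural-log median intensity across replicate spots of either probe orientation.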
row,Sequence,gcPBM binding intensity (ln)
1,AAATAAAAAAAAATAGCACACATAAATATATTATAT [CACACA_site8155],9.81
2,CTAGGTATGCTTTAAACATGCAAAAATACAAATTAC [TGCATGCA_site239],9.64
3,ATATATAAATATATTTGTACATATAATATGTATTAT [XGTACX_site8820],9.69
4,TTTTGTTATAATAAAGTGCATTTAGTCGGGTTACAA [GTGCAC_site9779],9.43
5,AAATATTATAAAAAGGTGCATTTTTATTATATGAGT,9.65
6,AATTTAAAAAAAATCACACACAGAAAAAAAAAAAAA [CACACA_site2322],9.83
7,ATATATGTTTTTATATGTACTTATAATGTGTGTATA [XGTACX_site5165],9.98
8,AAGGAAAACAATAGGTGTACCAAACGTCCTAGGAAC [XGTACX_site5732],10.2
9,TTTCTTCATTTTTTCACACATAAGAAAATATAATCA [CACACA_site4275],9.49
10,TAAAAAAATAAAATTACACACATATATAAATATATA [CACACA_site2620],9.67
11,AAAAAAGCAATATGATGTACATTTACTTTGTGAAAG [XGTACX_site4450],9.64
12,TATATCCACATTTTTAGTACTTAAAAATAAATAAAC [XGTACX_site3826],9.52
13,TTCTGACCAATGCTATAAAATAATACAAAAGAAAAA [GTGCAC_negctrl_site3],9.38
14,TGAAGAGGAAACAAACAAAATGAATAATTAAAAAGG [CACACA_negctrl_site1601],9.58
15,TATATATAAATATGCTGTACGTTTTAATACGTTAAG [XGTACX_site2378],9.41
16,CTCAAAGGAATATTCACACATAAATTATAGACTACA [CACACA_site6050],9.58
17,TAATTATATTCACTTGCTATATAAATTATATATATT [CACACA_negctrl_site526],9.64
18,ATACACACTCAAAAAAGTACTTAACTACATGAATTG [XGTACX_site6366],9.83
19,GTATATATATATATATGCAAATGTATAAATCTACAT [CACACA_negctrl_site546],9.72
20,AAGAAAAAAATATATGTTTATTTACTTTAATAATTT [TGCATGCA_negctrl_site168],9.41
21,AAAAAAAGTTATATTACACACTTTATTCGTTAACTT [CACACA_site3013],9.71
22,ATATTTATGAAGTTCACACATATATATATATATATA [CACACA_site5954],9.58
23,ACAACAATATTTGAATGTACTCTATTTTCGTTGTTC [XGTACX_site593],9.74
24,GATAAATTAAAACACACACACATATATATATATATA [CACACA_site3962],10.2
